Among the data in paper PMC5700166 are binding signal values, retold here.

This is a selection; strong and weak results do not stand in their true shares. The list includes weakly bound sequences.

Assay in all cases: protein-binding microarray (PBM)
What all share (details): PBM: ~300 nM protein, 6 mM HEPES pH 7.8, 80 mM KCl, 0.5 mM EDTA, 0.5 mM EGTA, 6% glycerol, 35 ng/ul poly-dIdC, 1% milk, 1 h, room temperature; Ap Aiptasia and Nv Nematostella (sea anemones) / Co Capsaspora / Aq Amphimedon (sponge) / Dm Drosophila / Hu human; RHD is the Rel homology domain; high values mean tight binding; most listed sequences are background and not binding sites; double strand, one strand shown

For one assay, the target named is T1, GST-Ap-NF-kB RHD (UniProt A0A913YAJ5).
T1 sequence: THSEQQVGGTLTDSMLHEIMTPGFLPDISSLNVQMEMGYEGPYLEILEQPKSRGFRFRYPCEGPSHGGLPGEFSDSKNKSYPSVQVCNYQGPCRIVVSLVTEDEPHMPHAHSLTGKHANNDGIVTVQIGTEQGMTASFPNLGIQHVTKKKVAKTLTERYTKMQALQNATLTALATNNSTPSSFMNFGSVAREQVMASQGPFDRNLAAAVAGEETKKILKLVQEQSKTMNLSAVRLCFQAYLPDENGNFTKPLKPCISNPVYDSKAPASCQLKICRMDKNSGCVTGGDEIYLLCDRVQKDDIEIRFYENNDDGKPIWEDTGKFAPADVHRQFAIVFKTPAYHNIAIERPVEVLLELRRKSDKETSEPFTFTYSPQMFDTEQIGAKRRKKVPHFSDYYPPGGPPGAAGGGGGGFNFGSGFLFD

Assay [1] addresses T2, GST-Nv-NF-kB (Cys allele) (UniProt E5G601).
T2 sequence: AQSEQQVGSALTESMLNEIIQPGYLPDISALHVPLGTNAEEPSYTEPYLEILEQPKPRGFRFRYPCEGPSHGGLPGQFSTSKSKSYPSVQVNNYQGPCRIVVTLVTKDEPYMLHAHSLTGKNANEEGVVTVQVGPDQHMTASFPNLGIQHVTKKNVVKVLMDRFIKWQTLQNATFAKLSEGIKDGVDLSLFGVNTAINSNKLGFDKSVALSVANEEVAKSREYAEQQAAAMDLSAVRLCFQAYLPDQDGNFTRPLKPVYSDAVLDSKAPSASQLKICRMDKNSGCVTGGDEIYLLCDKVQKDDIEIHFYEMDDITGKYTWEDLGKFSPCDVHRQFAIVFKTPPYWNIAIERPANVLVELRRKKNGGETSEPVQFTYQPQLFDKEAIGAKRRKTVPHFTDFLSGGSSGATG

The next assay has as its target T3, GST-Co-NF-kB (UniProt F1ARL5).
T3 sequence: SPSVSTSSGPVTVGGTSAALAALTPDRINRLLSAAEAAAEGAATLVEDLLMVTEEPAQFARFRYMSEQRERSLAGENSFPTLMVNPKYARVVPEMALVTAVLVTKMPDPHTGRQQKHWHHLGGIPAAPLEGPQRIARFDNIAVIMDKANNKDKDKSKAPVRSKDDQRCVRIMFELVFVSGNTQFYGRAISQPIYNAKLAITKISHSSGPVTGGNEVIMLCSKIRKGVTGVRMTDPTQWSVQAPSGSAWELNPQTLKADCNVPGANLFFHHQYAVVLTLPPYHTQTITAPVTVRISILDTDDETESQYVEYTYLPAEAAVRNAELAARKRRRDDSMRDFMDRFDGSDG

Turning to “CCGATTAACATCAATTTCCCAGGTGATGTTAATCGGGTCTTGATTCGCTTGACGCTGCTG”, the values for the binding signal (in the assay with GST-Ap-NF-kB RHD; in assay [1]; with GST-Co-NF-kB) were 2.16 z-score, 2.4 z-score and 3.41 z-score, respectively.

Regarding “CCGATTAACATCAGGGATCGCCCTGATGTTAATCGGGTCTTGATTCGCTTGACGCTGCTG”, the figures for the binding signal (with GST-Ap-NF-kB RHD; in assay [1]; with GST-Co-NF-kB) were 0.998 z-score, 1.19 z-score and -0.183 z-score, respectively.

Take “CCGATTAACATCAAAAAATGCCCTGATGTTAATCGGGTCTTGATTCGCTTGACGCTGCTG”: the binding signal with GST-Ap-NF-kB RHD came to 2.08 z-score; in assay [1], 3.03 z-score; with GST-Co-NF-kB, 1 z-score.

Turning to “CCGATTAACATCAAGGGGAGTCCTGATGTTAATCGGGTCTTGATTCGCTTGACGCTGCTG”, the binding signal with GST-Ap-NF-kB RHD is 6.71 z-score; in assay [1], 4.83 z-score; with GST-Co-NF-kB it was 2.5 z-score.

As for “CCGATTAACATCAGGGGGGGACATGATGTTAATCGGGTCTTGATTCGCTTGACGCTGCTG”, the binding signal worked out at 5.67 z-score with GST-Ap-NF-kB RHD, 5.09 z-score in assay [1] and 7.08 z-score in the assay with GST-Co-NF-kB.

On to “CCGATTAACATCACCCTTGCAGGTGATGTTAATCGGGTCTTGATTCGCTTGACGCTGCTG”, for which the binding signal with GST-Ap-NF-kB RHD was -0.215 z-score; in assay [1], 0.361 z-score; with GST-Co-NF-kB it was 0.345 z-score.

With “CCGATTAACATCAGAAATTTCCATGATGTTAATCGGGTCTTGATTCGCTTGACGCTGCTG”, the figures for the binding signal (with GST-Ap-NF-kB RHD; in assay [1]; in the assay with GST-Co-NF-kB) were 0.388 z-score, -0.112 z-score and 0.846 z-score, respectively.

For “CCGATTAACATCAAGGGGGGAATTGATGTTAATCGGGTCTTGATTCGCTTGACGCTGCTG”, the binding signal turned out to be 7.34 z-score with GST-Ap-NF-kB RHD, 7.02 z-score in assay [1] and 7.24 z-score with GST-Co-NF-kB.

In the case of “CCGATTAACATCAGGAAAAATCCTGATGTTAATCGGGTCTTGATTCGCTTGACGCTGCTG”, the results for the binding signal (in the assay with GST-Ap-NF-kB RHD; in assay [1]; in the assay with GST-Co-NF-kB) were -0.886 z-score, -0.17 z-score and -0.108 z-score, respectively.

For the sequence “CCGATTAACATCAATAAATTTCCTGATGTTAATCGGGTCTTGATTCGCTTGACGCTGCTG”, the binding signal in the assay with GST-Ap-NF-kB RHD turned out to be 0.399 z-score; in assay [1], 0.567 z-score; with GST-Co-NF-kB it was 0.477 z-score.

Consider “CCGATTAACATCAAGGGGGGTAATGATGTTAATCGGGTCTTGATTCGCTTGACGCTGCTG”, for which the binding signal in the assay with GST-Ap-NF-kB RHD turned out to be 4.04 z-score; in assay [1], 4.87 z-score; with GST-Co-NF-kB, 5.42 z-score.

As to “CCGATTAACATCAAATCATTCCCTGATGTTAATCGGGTCTTGATTCGCTTGACGCTGCTG”, the binding signal is 1.6 z-score in the assay with GST-Ap-NF-kB RHD, 3.39 z-score in assay [1] and 3.4 z-score with GST-Co-NF-kB.

Regarding “CCGATTAACATCAGAGAATCCCCTGATGTTAATCGGGTCTTGATTCGCTTGACGCTGCTG”, the values for the binding signal (with GST-Ap-NF-kB RHD; in assay [1]; in the assay with GST-Co-NF-kB) were 9.54 z-score, 9.8 z-score and 3.37 z-score, respectively.

Take “CCGATTAACATCACGTAATTTCCTGATGTTAATCGGGTCTTGATTCGCTTGACGCTGCTG”: the figures for the binding signal (in the assay with GST-Ap-NF-kB RHD; in assay [1]; with GST-Co-NF-kB) were 0.0893 z-score, -0.359 z-score and 0.389 z-score, respectively.

“CCGATTAACATCACAGGATTTCCTGATGTTAATCGGGTCTTGATTCGCTTGACGCTGCTG”: the results for the binding signal (with GST-Ap-NF-kB RHD; in assay [1]; with GST-Co-NF-kB) were 0.719 z-score, -0.213 z-score and 0.159 z-score, respectively.

As to “CCGATTAACATCACGGGGGATTATGATGTTAATCGGGTCTTGATTCGCTTGACGCTGCTG”, the binding signal was 7.59 z-score with GST-Ap-NF-kB RHD, 6.57 z-score in assay [1] and 6.84 z-score with GST-Co-NF-kB.

As to “CCGATTAACATCAAAATTTCCACTGATGTTAATCGGGTCTTGATTCGCTTGACGCTGCTG”, the binding signal with GST-Ap-NF-kB RHD was -0.0148 z-score; in assay [1], 0.333 z-score; with GST-Co-NF-kB it was -0.291 z-score.

Turning to “CCGATTAACATCACGGAAATTCCTGATGTTAATCGGGTCTTGATTCGCTTGACGCTGCTG”, the binding signal turned out to be 0.646 z-score with GST-Ap-NF-kB RHD, 0.462 z-score in assay [1] and 0.686 z-score in the assay with GST-Co-NF-kB.

Take “CCGATTAACATCAGGTTCTTACCTGATGTTAATCGGGTCTTGATTCGCTTGACGCTGCTG”: the binding signal was -0.776 z-score with GST-Ap-NF-kB RHD, 0.949 z-score in assay [1] and -1.6 z-score in the assay with GST-Co-NF-kB.

For the sequence “CCGATTAACATCAGGAAAATTCCTGATGTTAATCGGGTCTTGATTCGCTTGACGCTGCTG”, the binding signal with GST-Ap-NF-kB RHD was -0.786 z-score; in assay [1], 0.89 z-score; with GST-Co-NF-kB, -0.864 z-score.

On to “CCGATTAACATCAGGATTTTTCATGATGTTAATCGGGTCTTGATTCGCTTGACGCTGCTG”, for which the binding signal in the assay with GST-Ap-NF-kB RHD was -0.0203 z-score; in assay [1] it was 0.0772 z-score; in the assay with GST-Co-NF-kB it was -0.556 z-score.

Regarding “CCGATTAACATCAAAAAGCCCCTTGATGTTAATCGGGTCTTGATTCGCTTGACGCTGCTG”, the binding signal with GST-Ap-NF-kB RHD was determined as 7.33 z-score; in assay [1] it was 9.57 z-score; with GST-Co-NF-kB it was 0.314 z-score.

As to “CCGATTAACATCACGGGCATCCCTGATGTTAATCGGGTCTTGATTCGCTTGACGCTGCTG”, the results for the binding signal (in the assay with GST-Ap-NF-kB RHD; in assay [1]; in the assay with GST-Co-NF-kB) were 0.855 z-score, 0.511 z-score and 0.627 z-score, respectively.

Consider “CCGATTAACATCAAAAATTCCGCTGATGTTAATCGGGTCTTGATTCGCTTGACGCTGCTG”, for which the binding signal with GST-Ap-NF-kB RHD stood at 0.315 z-score; in assay [1], 0.279 z-score; with GST-Co-NF-kB it was 0.387 z-score.

With “CCGATTAACATCACTTTTTCCCCTGATGTTAATCGGGTCTTGATTCGCTTGACGCTGCTG”, the binding signal came to 6.12 z-score with GST-Ap-NF-kB RHD, 7.44 z-score in assay [1] and 10.6 z-score with GST-Co-NF-kB.

As to “CCGATTAACATCAGGAATTTACATGATGTTAATCGGGTCTTGATTCGCTTGACGCTGCTG”, the values for the binding signal (with GST-Ap-NF-kB RHD; in assay [1]; with GST-Co-NF-kB) were -0.0934 z-score, 0.174 z-score and 0.345 z-score, respectively.

On to “CCGATTAACATCAGGGGGATGTATGATGTTAATCGGGTCTTGATTCGCTTGACGCTGCTG”, for which the binding signal turned out to be 4.97 z-score in the assay with GST-Ap-NF-kB RHD, 4.88 z-score in assay [1] and 4.13 z-score in the assay with GST-Co-NF-kB.

As to “CCGATTAACATCAAGGAAACTCCTGATGTTAATCGGGTCTTGATTCGCTTGACGCTGCTG”, the binding signal is 0.0313 z-score in the assay with GST-Ap-NF-kB RHD, -0.615 z-score in assay [1] and -0.0805 z-score in the assay with GST-Co-NF-kB.

As for “CCGATTAACATCAGGAAAGACCATGATGTTAATCGGGTCTTGATTCGCTTGACGCTGCTG”, the values for the binding signal (with GST-Ap-NF-kB RHD; in assay [1]; with GST-Co-NF-kB) were -0.255 z-score, 0.239 z-score and -0.293 z-score, respectively.

For the sequence “CCGATTAACATCAGGGGAAAACATGATGTTAATCGGGTCTTGATTCGCTTGACGCTGCTG”, the values for the binding signal (in the assay with GST-Ap-NF-kB RHD; in assay [1]; with GST-Co-NF-kB) were 6.62 z-score, 7.81 z-score and 8.6 z-score, respectively.

As to “CCGATTAACATCAAAGAAATTCCTGATGTTAATCGGGTCTTGATTCGCTTGACGCTGCTG”, the figures for the binding signal (with GST-Ap-NF-kB RHD; in assay [1]; with GST-Co-NF-kB) were 0.495 z-score, 0.624 z-score and 0.184 z-score, respectively.

Consider “CCGATTAACATCAGAGAACCCCCTGATGTTAATCGGGTCTTGATTCGCTTGACGCTGCTG”, for which the binding signal in the assay with GST-Ap-NF-kB RHD turned out to be 7.89 z-score; in assay [1] it was 6.19 z-score; with GST-Co-NF-kB, 2.09 z-score.

With “CCGATTAACATCAATAAAACCCCTGATGTTAATCGGGTCTTGATTCGCTTGACGCTGCTG”, the figures for the binding signal (with GST-Ap-NF-kB RHD; in assay [1]; in the assay with GST-Co-NF-kB) were 5.73 z-score, 5.27 z-score and 2.26 z-score, respectively.
